Experimental data taken from PubChem BioAssay (NCATS).
Values joined by “and” are separate entries in the source; they are usually repeats but may differ in a detail not shown here. Equal values may be shown once. The list shows a part of the results. These are further read-outs of the screen, such as a control signal, another cell line or another target. No call is given for them. The note in brackets gives the kind of curve behind each potency; many fits are weak.

Assay: qHTS drug screen for cell cycle checkpoint inhibitors in PARPi-resistant BRCA-mutant ovarian cancer cell lines. (AID 1963452)
Settings: PEO1/OlaR viability, CellTiter-Glo luminescence, 96 h
How it was run: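 PEO1, PEO4 and PEO1/OlaR ovarian cancer cells, 600 per well, exposed 96 h at 37C to a dilution series. Viability read by CellTiter-Glo luminescence, normalized to DMSO and empty wells; activity summarized as Z-AUC.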

[1] = measured here: PEO1 parental viability
Tags describe the fitted curve by direction and shape.

Structure (SMILES): O=C(NOCCO)c1cc(CN2OCCCC2=O)c(F)c(F)c1Nc1ccc(I)cc1F
- AC50 [1]: 0.195 µM [falling, full curve]
- AC50 (measured here: PEO4 viability): 0.389 µM [falling, full curve]

Structure (SMILES): O=C(NCc1ccc(S(=O)(=O)c2cccc(C(F)(F)F)c2)cc1)c1cnc2[nH]ncc2c1
- AC50 [1]: 0.0155 µM [falling, full curve]
- AC50 (measured here: PEO4 viability): 0.0436 µM [falling, full curve]

Structure (SMILES): CCCCNc1ncc2c(-c3ccc(CN4CCN(C)CC4)cc3)cn(C3CCC(O)CC3)c2n1 (centres undefined)
- AC50 [1]: 4.9 µM [falling, full curve] and 13.8 µM [falling, partial curve, poor fit]
- AC50 (measured here: PEO4 viability): 977 nM [falling, full curve] and 8.71 µM [falling, partial curve, poor fit]

Structure (SMILES): Cc1cc(C)c(CNC(=O)c2cc(-c3ccc(CN4CCOCC4)cc3)cc3c2cnn3C2CCCC2)c(=O)[nH]1
- AC50 [1]: 1.95 µM [falling, partial curve, poor fit]
- AC50 (measured here: PEO4 viability): 27.5 µM [falling, single point]

Structure (SMILES): CC(C)(C)NC(=O)Nc1cccc(Nc2ncc(F)c(NC(C)(C)CO)n2)c1
- AC50 [1]: 15.5 µM [falling, partial curve, poor fit]
- AC50 (measured here: PEO4 viability): 6.92 µM [falling, partial curve, poor fit]

Structure (SMILES): CC1(C)CCC2(CC1)N[C@@H](C(=O)N[C@@H]1CC[C@@H](C(N)=O)OC1)[C@H](c1ccnc(Cl)c1F)[C@]21C(=O)Nc2cc(Cl)ccc21
- AC50 [1]: 13.3 µM [falling, partial curve]
- AC50 (measured here: PEO4 viability): 21.1 µM [falling, single point]

Structure (SMILES): COCCOC(=O)N1CCN(S(=O)(=O)c2cc(F)c(Oc3ccc(Cl)cc3)c(F)c2)C(C(=O)NO)C1 (centres undefined)
- AC50 [1]: 17.4 µM [falling, partial curve]
- AC50 (measured here: PEO4 viability): 21.9 µM [falling, single point]

Structure (SMILES): CC(C)CC(=O)N[C@H](C(=O)N[C@H](C(=O)N[C@@H](CC(C)C)[C@@H](O)CC(=O)N[C@@H](C)C(=O)N[C@@H](CC(C)C)[C@@H](O)CC(=O)O)C(C)C)C(C)C
- AC50 [1]: 6.16 µM [rising, partial curve, poor fit]
- AC50 (measured here: PEO4 viability): 17.4 µM [rising, partial curve]

Structure (SMILES): O=C([C@@H](Cc1cccc(C(F)(F)F)c1)NS(=O)(=O)c1cc(F)c2c(c1)CCNC2)N1CCCC1
- AC50 [1]: 1.38 µM [falling, partial curve, poor fit]
- AC50 (measured here: PEO4 viability): 19.5 µM [falling, partial curve, poor fit]

Structure (SMILES): c1ccc(-c2cc(CCC3CCNCC3)c3ccccc3n2)cc1
- AC50 [1]: 21.9 µM [falling, single point]
- AC50 (measured here: PEO4 viability): 17.4 µM [falling, single point]

Structure (SMILES): NCC1CCN(c2nccc(-c3ccc4ccccc4c3)n2)CC1
- AC50 [1]: 17.4 µM [falling, partial curve]
- AC50 (measured here: PEO4 viability): 6.16 µM [falling, partial curve]

Structure (SMILES): CN1CCN(C(=O)c2ccc(-c3ccc4c(C=O)c(O)ccc4c3)s2)CC1
- AC50 [1]: 27.5 µM [falling, single point]
- AC50 (measured here: PEO4 viability): 17.4 µM [falling, single point]

Structure (SMILES): C=CC(=O)Nc1cc(Nc2nccc(-c3cn(C)c4ccccc34)n2)c(OC)cc1N(C)CCN(C)C
- AC50 [1]: 19.5 µM [falling, partial curve]
- AC50 (measured here: PEO4 viability): 15.5 µM [falling, partial curve, poor fit]

Structure (SMILES): CN[C@@H]1C[C@H]2O[C@@](C)([C@@H]1OC)n1c3ccccc3c3c4c(c5c6ccccc6n2c5c31)C(=O)N[C@H]4O
- AC50 [1]: 3.17 µM [falling, partial curve]
- AC50 (measured here: PEO4 viability): 1.12 µM [falling, partial curve]

Structure (SMILES): C[C@H](CN(C)C)Oc1nc(Nc2cc3cccc(Cl)c3cn2)cnc1C#N
- AC50 [1]: 3.89 µM [falling, partial curve]
- AC50 (measured here: PEO4 viability): 1.23 µM [falling, full curve]

Structure (SMILES): CCNCCc1ccc(CN(CC)c2cc(OC)ccc2[C@@H]2CCc3cc(O)ccc3C2)cc1
- AC50 [1]: 2.75 µM [falling, full curve]
- AC50 (measured here: PEO4 viability): 4.9 µM [falling, full curve]

Structure (SMILES): CN1CCC(c2c(O)cc(O)c3c(=O)cc(-c4ccccc4Cl)oc23)C1CO (centres undefined)
- AC50 [1]: 1.1 µM [falling, full curve]
- AC50 (measured here: PEO4 viability): 1.38 µM [falling, full curve]
